Laboratory results from PubChem BioAssay AID1508624 (National Center for Advancing Translational Sciences (NCATS), 2021).
The campaign covered roughly 48,000 compounds. About 120 (0.25%) were called active. Roughly 4% stayed inconclusive and do not appear here. The call rests on the fitted dose curve; in most records, active means well fitted activation curve with a large enough effect; inconclusive means small, poorly fitted or top-dose-only effect, or another doubt; inactive means no such curve, though single readings can be large or run the other way. Some of the results follow.

Test: Primary qHTS for Identification of Small Molecule Activators of Huntingtin-Antisense Promoter Activity; further: nearly all actives have a fitted effect of over 55% in size
Conditions: HEK293 HTT-AS promoter firefly luciferase reporter, 24 h; series mostly up to 57.5 µM; activity change, positive = activation: at the top concentration
In short: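 Luminescence was read after Dual-Glo reagent and a 10 min room-temperature incubation. Values were normalized to vehicle (0% activity) and zero RLU (-100% activity). Reporter HEK293 cells had been exposed to compounds (up to 57.5 uM final) for 24 h.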

Activity change, positive = activation, inactive:
CCN(Cc1ccccc1)C(=O)c1cn(-c2cccc(OC)c2)c(=O)c2ccccc12 -14.1%, Cc1ccc(NC(=O)CSc2nc3n[nH]c(C)c3c(=N)n2-c2ccccc2C)cc1C -38.2%, O=C(Cn1ncc2c3ccccc3n(Cc3ccccc3)c2c1=O)NCCCN1CCCCC1 -1.32%, CC1CN(C(=O)N2CCC(C(=O)NCc3ccco3)CC2)c2ccccc2O1 (stereo unspecified) -8.42%, CCCCC(F)(F)[C@@]1(O)CC[C@H]2[C@H](CC(=O)[C@@H]2CCCCCCC(=O)O)O1 -7.37%, Cc1ccc2ncc(C(=O)c3ccc(C)c(C)c3)c(S(=O)(=O)c3ccccc3)c2c1 -56.7%, CCOc1cccc(C2c3c(oc4ccc(F)cc4c3=O)C(=O)N2c2cc(C)ccn2)c1 (stereo unspecified) -4.83%, CC1CCN(c2nc3ccccc3nc2C(F)(F)F)CC1 9.77%, Cc1cccc(CN2C(=O)c3ccccc3Sc3ccc(C(=O)NCCCN4CCOCC4)cc32)c1 -28.8%, COc1c(O)cc2c(c1O)[C@@H]1O[C@H](CO)[C@@H](O)[C@H](O)[C@H]1OC2=O -6.75%, CCN(CC)S(=O)(=O)c1nnc(NC(=O)c2ccc(C)cc2)s1 10.3%, C[C@@H]1CCN(C(=O)CC#N)C[C@H]1N(C)c1ncnc2[nH]ccc12 -12.6%, Cc1ccc(-c2nc(CS(=O)(=O)CC(=O)N3CCN(c4ccccc4)CC3)c(C)o2)cc1 -44.6%, COc1ccc(CNC(=O)c2cc3c(=O)n(Cc4ccc(OC)cc4)ccc3nc2C)cc1 -28.5%, COc1cc(Br)cc2cc(S(=O)(=O)c3ccccc3)c(=O)oc12 -9.55%, CCCSCCCNC(=O)c1sc2nc(C)cc(C)c2c1-n1cccc1 3.05%, Cc1ccc(-c2noc(-c3cccnc3N(C)Cc3ccc(Cl)cc3)n2)cc1 0.453%, COc1cccc(NCc2nnc3n2CCCCC3)c1 17.2%, CCOc1ccc(NC(=O)CN(c2ccc(C)cc2)S(=O)(=O)c2cccs2)cc1 -7.64%, CCc1cccc(C)c1Nc1c(-c2ccc(N(C)C)cc2)nc2cnccn12 -20.9%, CCCOc1ccc(CN2C(=O)C(=O)c3cccc(C)c32)cc1 -28.3%, Cc1ccc(-n2nc(C)c3c(C)c(CCC(=O)NCc4ccc(Cl)cc4)c(C)nc32)cc1 -4.66%, CCOc1ccc(CNCCSc2nnnn2C)cc1 -7.62%, COc1ccc(-c2cc(C(=O)Oc3ccc(C#N)cc3)no2)cc1 5.85%, COc1ccc(C(C)=O)c(O)c1 -8.91%, COc1ccc(CNC(=O)C(CC(C)C)NS(=O)(=O)c2ccc3c(c2)CCN3C(C)=O)cc1 (stereo unspecified) 17.6%, COc1ccc(-n2nc(C(N)=O)c3c2C(=O)N(c2ccc(N4CCCCC4=O)cc2)CC3)cc1 -11.5%, CCCc1cc(=O)[nH]c(SCc2nc(-c3ccccc3)no2)n1 -13.4%, O=S1(=O)c2ccccc2N(Cc2ccc(F)cc2)c2ccccc21 -40.3%, COc1ccc(Nc2nnc(-n3nc(C)cc3C)c3ccccc23)cc1 -4.76%, O=C(NCCOCCn1c(=O)oc2ccccc21)Nc1ccc(F)cc1F -14.1%, Oc1c(C(c2ccc(Cl)cc2Cl)N2CCN(Cc3ccccc3)CC2)sc2nc(-c3ccco3)nn12 (stereo unspecified) 9.99%, Cc1ccc(CNC(=O)Cn2ccn(-c3ccc(F)c(F)c3)c(=O)c2=O)cc1 -6%, CCC(Sc1nc2ccncc2[nH]1)C(=O)Nc1cc(C)ccc1C (stereo unspecified) -25.8%, CCCn1c(=N)c(C(=O)NCc2ccco2)cc2c(=O)n3cc(C)ccc3nc21 -0.352%, COCCNC(=O)CCCn1c(SCc2ccccc2C)nc2c(sc3ccccc32)c1=O -48.7%, CCn1cc(/C=C(\NC(=O)c2ccccc2Cl)C(=O)NCCCn2ccnc2)c2ccccc21 -12.7%, Cc1ccc(C2N3CC4(C)CN2CC(c2ccccc2)(C3)C4=O)cc1 (stereo unspecified) -2.58%, CCOCCCNC(=O)C(c1ccc(Cl)cc1)N(Cc1ccc2c(c1)OCO2)C(=O)c1ccc(NC(C)=O)cc1 (stereo unspecified) -18.2%, Cc1ccc(CNC(=O)c2ccc(N3Cc4ccccc4Oc4ncccc43)s2)cc1 -31.7%, CCOc1ccc(C(=O)Nc2ccc(C(=O)OCc3cc(=O)n4c(C)csc4n3)cc2)cc1 -35%, CC(C)c1nc(CN(C)C(=O)N[C@H](C(=O)N[C@@H](Cc2ccccc2)C[C@H](O)[C@H](Cc2ccccc2)NC(=O)OCc2cncs2)C(C)C)cs1, COC(=O)c1ccccc1NC(=O)Cn1c(=O)n(-c2ccc(C)cc2)c(=O)c2ccccc21 -33.8%, CCOc1ccc(NC(=O)Cn2nc(CC)n3c(cc4sccc43)c2=O)cc1 -3.97%, Cc1ccc2c(c1)c1c(c(=O)n(-c3cccc(Cl)c3)c(=O)n1CC(N)=O)n2C -8.83%, COc1cc(Nc2nc3c(S(=O)(=O)c4cccc(Cl)c4)nnn3c3ccsc23)cc(OC)c1 -6.51%, CCC(=O)N1CCc2cc(S(=O)(=O)NCCC(=O)Nc3ccc(C)cc3C)ccc21 5.56%, COc1ccccc1OCCNCC(O)COc1cccc2[nH]c3ccccc3c12 (stereo unspecified), O=C1Nc2ccccc2C1Cc1ccc(Br)cc1 (stereo unspecified) -18.1%, CC1CCc2noc(NC(=O)c3ccc([N+](=O)[O-])cc3)c2C1 (stereo unspecified) 7.87%, Cc1ccc(NC(=O)CN2C(=O)c3ccccc3Sc3ccc(C(=O)N4CCOCC4)cc32)cc1C -17.9%, Cc1ccc(NC(=O)CSc2nc3nccnc3c(=O)n2CCc2c[nH]c3ccccc23)cc1C -23.9%, O=C(CSc1nc(=O)n(Cc2ccccn2)c2c1CCC2)Nc1cccc(Cl)c1 -32.4%, COCCNC(=O)CSc1nc(-c2ccc(C)cc2)[nH]c1-c1ccc(OC)cc1 -11.2%, CCc1ccc(NC(=O)CN2C(C(=O)OC)=C(c3ccccc3)c3ccccc3S2(=O)=O)cc1 -25%, CC(C)CCNC(=O)C1CCC(CNS(=O)(=O)c2cccc3nsnc23)CC1 (stereo unspecified) -5.96%, CCCc1nn2c(=O)cc(COC(=O)c3ccccc3NC(=O)c3ccc(OCC)cc3)nc2s1 24.7%, O=C(Nc1ccc(Cl)cc1F)c1cc(S(=O)(=O)NC2CCCCCC2)ccc1F -31%, Cc1ccc(C(=O)c2cn(Cc3ccccc3)c3ccccc3c2=O)cc1 11.3%, Cc1ccccc1OCC(=O)Nc1ccccc1C(=O)OCc1cc(=O)n2nc(C3CC3)sc2n1 0%, Cc1cccc(NC(=O)c2oc3ccccc3c2NC(=O)Cc2coc3cc(C)cc(C)c23)c1 -1.16%, Cc1ccc(-c2c3c(=O)n(C)c(=O)n(C)c3c3c(C)nc4ccccc4n23)cc1 2% [at 11.5 µM, percent change from vehicle, -100% = no light], COc1ccc(NC(=O)Cn2ccn(-c3ccc(C)c(C)c3)c(=O)c2=O)cc1Cl -11.6%, Cc1cc(N2CCN(c3ccc(F)cc3)CC2)n2cnnc2n1 -9.21%, COc1ccc(Cl)cc1NC(=O)CSc1nc(=O)[nH]c2c1CCC2 -23.9%, COc1ccccc1CNc1ncnc2c1nc1n2CCCC1 -8.05%, Cc1ccc(Cl)cc1NC(=O)c1cc(S(=O)(=O)N2CCOCC2)cn1C -9.28%, COc1ccccc1CNS(=O)(=O)c1c(C)nc2sc(C)cn2c1=O -5.86%, O=C(O)c1ccc2c(c1)N(Cc1ccc(F)cc1)C(=O)c1ccccc1S2=O (stereo unspecified) -26.6%, Cc1cc(NC(=O)c2cc(-c3ccc(F)cc3)on2)nn1Cc1ccc(Cl)cc1 -36%, Cc1ccc2c(CC(=O)Nc3ccc(S(=O)(=O)N4CCCC(C)C4)cc3)coc2c1 (stereo unspecified) -11.2%, CC1CCN(S(=O)(=O)c2ccc3c(c2)N(CC(=O)NCCN(C)C)C(=O)CS3)CC1 -1.45%, O=C(NCCc1ccccc1)c1ccc2c(c1)CCN2S(=O)(=O)c1ccc(Cl)cc1 -17.7%, COC(=O)c1cc(NC(=O)Cn2ncc3c([nH]c4ccccc43)c2=O)cc(C(=O)OC)c1 -18%, O=C(Cn1c(=O)c2cccn2c2ccc(F)cc21)Nc1cccc(F)c1 -28.5%, CCCCN(C)C(=O)C1CCC(Cn2c(=O)[nH]c3ccsc3c2=O)CC1 (stereo unspecified) -8.33%, OC(c1ccccc1)c1nc2ccccc2n1Cc1c(F)cccc1Cl (stereo unspecified) -18.4%, Cc1oc2ncnc(N3CCOCC3)c2c1C(=O)Nc1ccc(Br)cc1F -18.8%, Fc1ccc(-n2nc(-c3ccccc3)c3cnc4ccccc4c32)cc1Cl -2.01%, COC(=O)c1scc(-c2ccccc2)c1S(=O)(=O)Nc1ccc(C)c(Cl)c1 -39%, CCOc1ccc(NC(=O)c2c(NCc3cccs3)sc3c2CCCCC3)cc1 2.83%, OC[C@@H](O)[C@H](O)[C@H](O)[C@@H](O)CO, COc1ccc(C2C=C(c3ccccc3)Nc3nc(NC(=O)/C=C/c4ccccc4OC)nn32)cc1 (stereo unspecified) -21.5%, Cc1cccc(OCC(=O)N(Cc2ccc(N(C)C)cc2)Cc2ccco2)c1C -38.9%, Cc1ccnc2nc(NC(=O)c3ccccc3Cl)nn12 20.2%, Cc1cccc(N(CC(=O)N(C)Cc2ccccc2)S(=O)(=O)c2ccccc2)c1C -17.1%, CCC(=O)N1CCc2cc(Br)cc(S(=O)(=O)N3CCCC(C(=O)Nc4ccc(OC)cc4OC)C3)c21 (stereo unspecified) -10.7%, CCc1ccc(S(=O)(=O)c2nnn3c2nc(NC(C)C)c2cc(Cl)ccc23)cc1 -4.93%, COc1cc(N2CCC(N3CCN(C)CC3)CC2)ccc1Nc1ncc(Cl)c(Nc2ccccc2S(=O)(=O)C(C)C)n1 -43.7%, O=C(NCC1CCCCN1)c1cc(OCC(F)(F)F)ccc1OCC(F)(F)F (stereo unspecified), CC12CN3CC(c4ccccc4)(CN(C1)C3c1ccc(Cl)cc1)C2=O (stereo unspecified) 1.05%, CC(=O)c1cc(-c2ccccc2)n(CCC(=O)NC2CCCCC2)c1C -26.6%, CC1CCc2cc(F)cc3c(=O)c(C(=O)O)cn1c23 (stereo unspecified) -3.46%, COc1ccccc1CNC(=O)c1ccc(CS(=O)c2ccccc2Cl)o1 (stereo unspecified) -26.4%, O=C(NCCc1ccc(Cl)cc1)c1ccc(CSCc2ccc(Cl)cc2)o1 -23.5%, Clc1ccccc1-c1nnc(SCc2nc(-c3ccccc3)no2)n1-c1ccccc1 -33.7%
